Results as given in US20210340207A1 (Merck Sharp & Dohme, published 2021).

B1: Ald-6HIS (ligand)
chain: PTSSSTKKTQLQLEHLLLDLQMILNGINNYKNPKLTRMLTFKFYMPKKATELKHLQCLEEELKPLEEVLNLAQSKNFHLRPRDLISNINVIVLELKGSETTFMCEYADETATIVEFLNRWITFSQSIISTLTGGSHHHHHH
notes: also called aldesleukin with carboxyl-terminus HIS6-tag linked via a Gly-Gly-Ser linker
B2: Aldesleukin (DesA1_IL-2_C124S) (ligand)
chain: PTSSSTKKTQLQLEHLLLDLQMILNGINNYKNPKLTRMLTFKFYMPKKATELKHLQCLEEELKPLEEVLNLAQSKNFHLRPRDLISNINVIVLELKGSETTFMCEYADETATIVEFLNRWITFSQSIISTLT

Assays:
Biotin-IL-2Rα-His = biological target: T1, Biotin-IL-2Rα-His (UniProt P01589 22-213, limits assumed, biotin-labeled (site not stated)); assay: SPR (Biacore T200)
T1 construct: also called biotin-labeled IL-2Rα; not shown: His tag
T1 sequence (looked up): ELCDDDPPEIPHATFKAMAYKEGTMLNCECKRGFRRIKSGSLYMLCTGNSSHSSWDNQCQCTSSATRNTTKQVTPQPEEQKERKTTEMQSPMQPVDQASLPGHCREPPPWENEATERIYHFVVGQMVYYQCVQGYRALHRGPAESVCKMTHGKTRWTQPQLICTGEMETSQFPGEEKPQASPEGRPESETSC

Biotin-IL-2Rβ-His = biological target: T2, Biotin-IL-2Rβ-His (UniProt P14784 27-239, limits assumed, biotin-labeled (site not stated)); assay: SPR (Biacore T200)
T2 construct: also called biotin-labeled IL-2Rβ; not shown: His tag
T2 sequence (looked up): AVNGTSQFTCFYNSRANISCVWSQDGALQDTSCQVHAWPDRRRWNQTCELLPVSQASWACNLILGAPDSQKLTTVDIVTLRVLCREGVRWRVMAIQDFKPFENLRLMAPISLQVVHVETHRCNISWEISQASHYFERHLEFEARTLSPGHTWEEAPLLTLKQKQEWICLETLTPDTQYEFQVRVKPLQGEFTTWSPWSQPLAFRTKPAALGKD

[1] = biological target: T3, human IL-2Rβγc (on DERL-7 cells, U2OS IL2RB/IL2RG cells, CD25 knockout Kit225-STAT5 cells, primary CD8+ CTLs) (human, UniProt P14784 27-551; P31785 23-369); assay: cell-based or functional assay
T3 sequence (looked up) 1: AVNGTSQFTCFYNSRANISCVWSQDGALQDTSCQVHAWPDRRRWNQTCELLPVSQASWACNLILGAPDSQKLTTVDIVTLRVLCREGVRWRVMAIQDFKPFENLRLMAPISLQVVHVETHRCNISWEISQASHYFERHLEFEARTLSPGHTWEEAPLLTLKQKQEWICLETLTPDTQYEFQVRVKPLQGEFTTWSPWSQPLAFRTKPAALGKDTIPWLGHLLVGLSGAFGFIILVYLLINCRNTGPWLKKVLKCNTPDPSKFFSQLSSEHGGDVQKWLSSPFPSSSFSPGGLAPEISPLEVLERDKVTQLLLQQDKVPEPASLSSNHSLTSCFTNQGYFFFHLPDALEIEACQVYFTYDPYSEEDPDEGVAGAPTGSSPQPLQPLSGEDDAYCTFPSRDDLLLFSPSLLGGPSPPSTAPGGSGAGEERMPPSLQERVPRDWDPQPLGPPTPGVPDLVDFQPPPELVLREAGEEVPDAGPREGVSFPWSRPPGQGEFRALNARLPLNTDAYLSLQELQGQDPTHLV
T3 sequence (looked up) 2: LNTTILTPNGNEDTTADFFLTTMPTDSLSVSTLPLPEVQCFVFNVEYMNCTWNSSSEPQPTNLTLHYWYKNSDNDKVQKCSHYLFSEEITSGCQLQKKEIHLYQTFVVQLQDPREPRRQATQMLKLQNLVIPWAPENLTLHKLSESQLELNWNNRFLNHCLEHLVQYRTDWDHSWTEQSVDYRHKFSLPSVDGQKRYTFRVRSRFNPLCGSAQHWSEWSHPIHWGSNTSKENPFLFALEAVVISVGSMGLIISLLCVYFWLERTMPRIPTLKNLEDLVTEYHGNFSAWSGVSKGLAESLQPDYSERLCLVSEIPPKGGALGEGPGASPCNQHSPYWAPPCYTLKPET

[2] = biological target: T4, mouse IL-2Rαβγc (on CTLL2-STAT5 reporter cells) (mouse, UniProt P01590 22-268; P16297 27-539; P34902 23-369); assay: cell-based or functional assay
T4 sequence (looked up) 1: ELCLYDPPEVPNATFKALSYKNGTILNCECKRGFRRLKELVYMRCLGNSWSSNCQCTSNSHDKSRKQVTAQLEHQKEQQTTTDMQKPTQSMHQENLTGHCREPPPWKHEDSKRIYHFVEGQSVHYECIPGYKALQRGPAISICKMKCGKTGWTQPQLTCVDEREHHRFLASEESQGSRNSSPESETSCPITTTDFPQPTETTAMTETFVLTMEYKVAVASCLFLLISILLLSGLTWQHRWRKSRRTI
T4 sequence (looked up) 2: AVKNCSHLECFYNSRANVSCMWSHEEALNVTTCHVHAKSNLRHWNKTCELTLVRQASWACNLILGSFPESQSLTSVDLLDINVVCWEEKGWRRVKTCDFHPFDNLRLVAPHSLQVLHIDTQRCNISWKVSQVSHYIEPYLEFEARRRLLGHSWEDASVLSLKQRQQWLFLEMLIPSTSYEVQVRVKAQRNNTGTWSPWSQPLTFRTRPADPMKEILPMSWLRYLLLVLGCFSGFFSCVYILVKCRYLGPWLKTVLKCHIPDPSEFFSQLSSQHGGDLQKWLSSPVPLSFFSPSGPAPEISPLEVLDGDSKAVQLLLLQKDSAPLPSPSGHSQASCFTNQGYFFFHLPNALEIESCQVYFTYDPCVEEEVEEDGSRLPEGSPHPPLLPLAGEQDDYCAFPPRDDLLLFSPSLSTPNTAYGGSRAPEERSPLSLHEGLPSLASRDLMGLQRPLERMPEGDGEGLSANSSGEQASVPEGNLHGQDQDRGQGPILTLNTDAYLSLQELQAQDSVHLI
T4 sequence (looked up) 3: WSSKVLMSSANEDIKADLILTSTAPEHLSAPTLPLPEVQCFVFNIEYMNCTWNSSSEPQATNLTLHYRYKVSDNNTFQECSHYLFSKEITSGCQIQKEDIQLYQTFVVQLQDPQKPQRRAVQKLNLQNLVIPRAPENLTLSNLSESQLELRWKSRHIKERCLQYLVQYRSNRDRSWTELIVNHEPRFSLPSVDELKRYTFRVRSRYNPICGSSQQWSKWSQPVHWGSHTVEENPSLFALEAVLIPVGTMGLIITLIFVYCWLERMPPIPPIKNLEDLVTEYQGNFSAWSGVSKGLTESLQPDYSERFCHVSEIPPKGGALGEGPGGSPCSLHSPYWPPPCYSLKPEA

[3] = biological target: T3, human IL-2Rβγc (on DERL-7 cells, U2OS …); assay: cell-based or functional assay; remark: listed apart in the source
[4] = biological target: T4, mouse IL-2Rαβγc (on CTLL2-STAT5 …); assay: cell-based or functional assay; remark: listed apart in the source

Binder | Kd (Biotin-IL-2Rα-His) [nM] | fold reduction over wt (Biotin-IL-2Rα-His) [fold] | Kd (Biotin-IL-2Rβ-His) [nM] | fold reduction over wt (Biotin-IL-2Rβ-His) [fold] | DERL7 EC50 Fold Change [1] [fold] | DERL7 cell assay EC50 [1] [nM] | CTLL2-STAT5 EC50 [2] [nM] | U2OS-IL2Rbg EC50 [3] [nM] | STAT5-CTLL2 EC50 [4] [nM] | STAT5-CTLL2 EC50 Fold-change [4] [fold]
B1 | 10 | 1 | 400 | 1 | 1 | 0.018 |  |  |  | 
B2 |  |  |  |  |  |  | 0.012 | 0.813 | 0.011 | 1
